# Measured values taken from PubChem BioAssay (Tox21).
# Values joined by “and” are separate entries in the source; they are usually repeats but may differ in a detail not shown here. Identical values can stand only once. Inconclusive results, whose numbers are uncertain, are shown with a selection of clear calls. For some of these results: Potencies of inconclusive entries are doubtful fits and often do not repeat. More than one record can exist for a structure, and the calls need not agree. Active and inactive are the calls of the source. Unless noted, the call rests on the fitted dose curve; in most records, active means well fitted curve in the direction sought with a large enough effect in the repeat runs; inconclusive means weak or mixed curves; inactive means no such curve, though single readings can be large; an effect the other way counts as inactive or inconclusive.
# Assays:
# [1] = qHTS assay to identify small molecule agonists of the sonic hedgehog signaling (Shh) pathway - cell viability counter screen (AID 1259366); further: nearly all actives have a fitted effect of over 50% in size; further: potency means the concentration at half of the fitted maximal effect
# In short: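 Viability measured fluorometrically (CellTiter-Fluor, 1hr, 37C) in 3T3 Gli1-Luc reporter cells after 23hr compound exposure within a 24hr incubation at 37C/5% CO2.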
# [2] = qHTS assay to identify small molecule antagonists of the TGF-beta/Smad signaling pathway - cell viability counter screen (AID 1346824); further: nearly all actives have a fitted effect of over 50% in size; further: potency means the concentration at half of the fitted maximal effect
# In short: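 Cytotoxicity counter-screen run in the same wells as the beta-lactamase Smad reporter read: CellTiter-Glo luminescence after 30 min at room temperature. HEK 293T SBE-bla cells had 5 hr compound exposure at 37 C with TGF-beta1 (0.25 ng/mL stock).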
# [3] = molecular target: Estrogen receptor beta (Homo sapiens) (UniProt Q92731); experiment: qHTS assay to identify small molecule antagonists of the estrogen receptor beta (ER-beta) signaling pathway (AID 1259378; active means well fitted inhibition curve with a large enough effect in the signal ratio in the repeat runs, not every such curve was filed as active; inconclusive means weak or mixed curves, or effect the other way; inactive means no such curve, though single readings can be large or run the other way; the % refers to the signal ratio; further: potency means the concentration at half of the fitted maximal effect; on activity, negative = inhibition: on the % scale 0 is the no-effect control and ±100 the full control effect); settings: ER-beta-UAS-bla HEK293T, beta-lactamase FRET ratio, 16 h; activity, negative = inhibition: at 92.4 µM (top of the series) unless noted
# UniProt Q92731, sequence (Q92731 whole entry, looked up): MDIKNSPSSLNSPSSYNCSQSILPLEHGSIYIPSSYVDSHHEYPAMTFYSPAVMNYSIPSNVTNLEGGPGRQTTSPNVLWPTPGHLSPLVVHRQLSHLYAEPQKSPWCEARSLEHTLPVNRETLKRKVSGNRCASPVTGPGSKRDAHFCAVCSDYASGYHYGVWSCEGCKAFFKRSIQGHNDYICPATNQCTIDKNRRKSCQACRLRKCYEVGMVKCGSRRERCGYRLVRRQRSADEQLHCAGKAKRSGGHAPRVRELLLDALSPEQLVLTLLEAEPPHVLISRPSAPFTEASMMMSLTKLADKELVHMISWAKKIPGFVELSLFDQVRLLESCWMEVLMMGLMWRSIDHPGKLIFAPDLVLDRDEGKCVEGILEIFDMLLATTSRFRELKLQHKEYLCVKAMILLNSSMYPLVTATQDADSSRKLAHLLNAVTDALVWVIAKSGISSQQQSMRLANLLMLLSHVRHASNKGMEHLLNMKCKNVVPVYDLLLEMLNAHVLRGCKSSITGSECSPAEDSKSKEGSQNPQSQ
# In short: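 Antagonist mode: compounds added to beta-lactamase reporter HEK293T ER-beta-UAS cells stimulated with E2 (1nM final), 16 hr at 37C. LiveBLAzer B/G FRET substrate, 2 hours room temperature, fluorescence read-out.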
# [4] = qHTS assay to identify small molecule agonists of the estrogen receptor beta (ER-beta) signaling pathway - cell viability counter screen (AID 1259380); further: nearly all actives have a fitted effect of over 30% in size; further: potency means the concentration at half of the fitted maximal effect
# In short: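 Cell viability counter screen: CellTiter-Glo luminescence (30 min, room temperature) measured in the same wells as the beta-lactamase readout, after 16 hr compound exposure at 37C of ER-beta-bla HEK293T cells in 2% charcoal-stripped FBS medium.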
# [5] = molecular target: Progesterone receptor (Homo sapiens) (UniProt P06401); experiment: qHTS assay to identify small molecule antagonists of the progesterone receptor (PR) signaling pathway (AID 1346795; active means well fitted inhibition curve with a large enough effect in the signal ratio in the repeat runs, not every such curve was filed as active; inconclusive means weak or mixed curves; the % refers to the signal ratio; further: potency means the concentration at half of the fitted maximal effect; on activity change, negative = inhibition: on the % scale 0 is the no-effect control and ±100 the full control effect); settings: PR-UAS-bla HEK293T, beta-lactamase FRET ratio, 16 h; activity change, negative = inhibition: at 92.4 µM (top of the series) unless noted
# UniProt P06401, sequence (P06401 whole entry, looked up): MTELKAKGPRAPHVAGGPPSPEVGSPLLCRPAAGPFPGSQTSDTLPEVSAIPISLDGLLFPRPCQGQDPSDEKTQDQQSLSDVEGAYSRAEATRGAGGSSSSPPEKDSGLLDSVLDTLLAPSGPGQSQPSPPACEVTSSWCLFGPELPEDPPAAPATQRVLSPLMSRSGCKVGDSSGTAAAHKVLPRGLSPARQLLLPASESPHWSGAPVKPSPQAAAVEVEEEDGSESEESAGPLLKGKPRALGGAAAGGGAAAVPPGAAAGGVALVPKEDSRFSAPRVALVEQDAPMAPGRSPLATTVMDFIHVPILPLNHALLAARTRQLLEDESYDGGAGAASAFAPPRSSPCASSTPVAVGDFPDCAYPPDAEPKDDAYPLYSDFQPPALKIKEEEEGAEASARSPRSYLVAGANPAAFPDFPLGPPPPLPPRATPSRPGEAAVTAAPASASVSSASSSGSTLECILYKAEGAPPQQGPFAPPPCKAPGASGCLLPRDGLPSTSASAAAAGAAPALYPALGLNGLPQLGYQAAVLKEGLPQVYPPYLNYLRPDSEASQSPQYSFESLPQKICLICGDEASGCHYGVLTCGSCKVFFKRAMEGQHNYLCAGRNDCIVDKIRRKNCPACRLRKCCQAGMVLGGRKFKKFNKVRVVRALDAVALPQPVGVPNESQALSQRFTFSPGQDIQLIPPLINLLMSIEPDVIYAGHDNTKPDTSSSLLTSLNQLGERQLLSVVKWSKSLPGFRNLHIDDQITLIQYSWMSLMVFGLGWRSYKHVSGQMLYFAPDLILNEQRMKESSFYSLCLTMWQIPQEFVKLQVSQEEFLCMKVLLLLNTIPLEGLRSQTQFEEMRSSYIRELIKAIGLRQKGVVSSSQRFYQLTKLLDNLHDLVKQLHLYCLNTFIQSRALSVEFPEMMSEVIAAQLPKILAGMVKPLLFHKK
# In short: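 HEK293T PR-UAS-bla reporter cells in charcoal-stripped serum (2%) received compound after a 6 hr settling period, followed by R5020 agonist at 1 nM final; 16 hr incubation preceded the FRET substrate step and fluorescence measurement.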
# [6] = molecular target: Estrogen receptor beta (Homo sapiens) (UniProt Q92731); experiment: qHTS assay to identify small molecule agonists of the estrogen receptor beta (ER-beta) signaling pathway (AID 1259377; active means well fitted activation curve with a large enough effect in the signal ratio in the repeat runs, not every such curve was filed as active; inconclusive means weak or mixed curves, or effect the other way; the % refers to the signal ratio; further: potency means the concentration at half of the fitted maximal effect; on activation: on the % scale 0 is the no-effect control and ±100 the full control effect); settings: ER-beta-UAS-bla HEK293T, beta-lactamase FRET ratio, 16 h; activation: at 92.4 µM (top of the series) unless noted
# In short: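 A UAS-controlled beta-lactamase reporter in ER-beta-UAS-bla HEK293T cells reports receptor activation. Compounds act for 16 hr at 37C in 2% charcoal-stripped serum, and a FRET substrate is read by fluorescence after 2 hours.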
# [7] = qHTS assay to identify small molecule antagonists of the estrogen receptor beta (ER-beta) signaling pathway - cell viability counter screen (AID 1259382); further: nearly all actives have a fitted effect of over 55% in size; further: potency means the concentration at half of the fitted maximal effect
# In short: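 Cytotoxicity was measured in the same wells by CellTiter-Glo luminescence after 30 min at room temperature. Cells were ER-beta-bla HEK293T in charcoal-stripped serum, given compound together with 1 nM E2 and incubated 16 h at 37C.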
# [8] = molecular target: Progesterone receptor (Homo sapiens) (UniProt P06401); experiment: qHTS assay to identify small molecule agonists of the progesterone receptor (PR) signaling pathway (AID 1346784; calls by dose curve; further: nearly all actives have a fitted effect of over 30% in size; further: potency means the concentration at half of the fitted maximal effect; on activation: on the % scale 0 is the no-effect control and ±100 the full control effect); settings: PR-UAS-bla HEK293T, beta-lactamase FRET ratio, 16 h; activation: at 92.4 µM (top of the series) unless noted
# In short: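 Agonist mode, quantitative HTS format in a HEK 293T line expressing a UAS-controlled beta-lactamase reporter; 16 hr compound exposure at 37C in 2% charcoal-stripped FBS, then LiveBLAzer B/G FRET fluorescence.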
# [9] = qHTS assay to identify small molecule antagonists of the progesterone receptor (PR) signaling pathway - cell viability counter screen (AID 1346798); further: nearly all actives have a fitted effect of over 50% in size; further: potency means the concentration at half of the fitted maximal effect
# In short: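 Same-well multiplex: after 16 hr at 37C with compound and R5020 stimulation, HEK293T cells carrying a UAS-bla reporter received LiveBLAzer substrate (2 hr RT), then CellTiter-Glo (30 min RT) for luminescent viability.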
# [10] = qHTS assay to identify small molecule agonists of the progesterone receptor (PR) signaling pathway - cell viability counter screen (AID 1346799; calls by dose curve; further: nearly all actives have a fitted effect of over 45% in size; further: potency means the concentration at half of the fitted maximal effect)
# In short: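 Counter screen for cytotoxicity: compound-treated PR-UAS-bla HEK293T cells (16 hr, 37C, 5% CO2) were assayed with CellTiter-Glo, luminescence measured after 30 min at room temperature.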
# [11] = qHTS assay to identify small molecule agonists of the androgen receptor (AR) signaling pathway in the presence of an antagonist - cell viability counter screen (AID 1259379); further: potency means the concentration at half of the fitted maximal effect; nearly all actives have a fitted effect of over 25% in size
# In short: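 Cytotoxicity counter-screen run in the same wells as the nilutamide-challenged (3.0 µM final) AR agonist assay in MDA-kb2 cells. Compounds tested at 15 concentrations for 16 h, 37 °C without CO2; CellTiter-Fluor fluorescence read.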
# [12] = qHTS assay to identify small molecule agonists of the estrogen receptor alpha (ER-alpha) signaling pathway in the presence of an antagonist - cell viability counter screen (AID 1259386); further: nearly all actives have a fitted effect of over 30% in size; further: potency means the concentration at half of the fitted maximal effect
# In short: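 Compounds tested at 15 concentrations for 22 h at 37C alongside 10.0nM (final) ICI-182,780 antagonist, in VM7Luc4E2 cells grown in phenol red-free, charcoal-stripped medium. Viability read by CellTiter-Fluor fluorescence after 1 h reagent incubation.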
# [13] = qHTS assay to identify small molecule antagonists of the sonic hedgehog signaling (Shh) pathway (AID 1259369; calls by dose curve; further: potency means the concentration at half of the fitted maximal effect; nearly all actives have a fitted effect of over 45% in size)
# In short: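 Antagonist mode: compound added to 3T3 Gli1-Luc cells followed by conditioned-medium stimulation, 24 h at 37 C, 5% CO2. Inhibition taken as loss of Gli1-driven luciferase luminescence.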
# [14] = molecular target: Thyrotropin receptor (Homo sapiens) (UniProt P16473); experiment: qHTS assay to identify small molecule antagonists of the thyroid stimulating hormone receptor (TSHR) signaling pathway (AID 1259385; calls by dose curve; further: on the % scale 0 is the no-effect control and ±100 the full control effect; nearly all actives have a fitted effect of over 20% in size); settings: TSHR-HEK293 cAMP HTRF, TSH-stimulated antagonist mode; activity change, negative = inhibition: at 92.4 µM (top of the series) unless noted
# UniProt P16473, sequence (P16473 whole entry, looked up): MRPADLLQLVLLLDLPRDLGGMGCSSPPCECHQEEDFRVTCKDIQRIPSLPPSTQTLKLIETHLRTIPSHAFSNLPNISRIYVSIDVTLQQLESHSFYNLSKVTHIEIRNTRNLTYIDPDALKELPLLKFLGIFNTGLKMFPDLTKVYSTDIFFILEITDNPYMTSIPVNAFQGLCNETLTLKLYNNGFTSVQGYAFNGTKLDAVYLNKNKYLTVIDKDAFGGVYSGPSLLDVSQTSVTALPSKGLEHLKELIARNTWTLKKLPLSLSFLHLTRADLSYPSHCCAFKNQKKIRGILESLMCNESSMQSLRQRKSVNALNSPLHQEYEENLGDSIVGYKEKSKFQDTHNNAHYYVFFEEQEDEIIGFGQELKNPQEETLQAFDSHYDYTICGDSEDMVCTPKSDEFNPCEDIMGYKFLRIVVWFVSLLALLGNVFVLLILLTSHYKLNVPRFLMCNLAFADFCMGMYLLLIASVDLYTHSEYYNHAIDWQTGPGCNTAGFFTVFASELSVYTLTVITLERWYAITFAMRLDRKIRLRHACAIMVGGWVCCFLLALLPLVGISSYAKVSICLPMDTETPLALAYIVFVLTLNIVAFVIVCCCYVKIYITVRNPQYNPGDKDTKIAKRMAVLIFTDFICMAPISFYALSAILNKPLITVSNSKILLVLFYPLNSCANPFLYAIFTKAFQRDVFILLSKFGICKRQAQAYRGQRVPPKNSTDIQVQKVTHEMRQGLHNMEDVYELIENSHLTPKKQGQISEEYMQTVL
# In short: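 Antagonist mode: compound-treated TSHR-expressing HEK293 cells were stimulated with 1.5 ng/mL TSH (final) in presence of Ro20-1724 for 30 min at RT. HTRF cAMP detection after 1 h; each compound tested at 15 concentrations, triplicate.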
# [15] = molecular target: Estrogen receptor (Homo sapiens) (UniProt P03372); experiment: qHTS assay to identify small molecule agonists of the estrogen receptor alpha (ER-alpha) signaling pathway in the presence of an antagonist (AID 1259383; calls by dose curve; further: potency means the concentration at half of the fitted maximal effect; nearly all actives have a fitted effect of over 15% in size)
# UniProt P03372, sequence (P03372 whole entry, looked up): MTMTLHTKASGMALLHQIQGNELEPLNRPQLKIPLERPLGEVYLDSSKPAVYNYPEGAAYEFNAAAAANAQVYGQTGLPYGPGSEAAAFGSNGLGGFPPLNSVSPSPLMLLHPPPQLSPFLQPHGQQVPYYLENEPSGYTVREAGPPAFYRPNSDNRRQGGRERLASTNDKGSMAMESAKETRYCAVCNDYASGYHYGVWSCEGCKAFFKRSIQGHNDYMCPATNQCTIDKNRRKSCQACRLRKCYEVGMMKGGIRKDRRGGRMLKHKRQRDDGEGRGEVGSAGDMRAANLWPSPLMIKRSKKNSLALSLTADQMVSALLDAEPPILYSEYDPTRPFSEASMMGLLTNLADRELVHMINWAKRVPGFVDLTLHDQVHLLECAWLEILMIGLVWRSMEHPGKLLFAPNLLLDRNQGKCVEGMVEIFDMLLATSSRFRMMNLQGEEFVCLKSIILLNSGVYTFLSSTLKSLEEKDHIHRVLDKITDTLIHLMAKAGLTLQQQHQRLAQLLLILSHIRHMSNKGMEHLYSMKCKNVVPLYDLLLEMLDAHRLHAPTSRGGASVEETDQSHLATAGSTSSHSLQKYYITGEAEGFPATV
# In short: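 Agonist-mode confirmation run in the presence of 10.0nM (final) ICI-182,780 antagonist. The reporter was ERE-driven luciferase in VM7Luc4E2 cells, grown in charcoal-stripped serum. Cells were exposed to 15-concentration compound series for 22hr, then ONE-Glo luminescence was read.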
# Tags describe the fitted curve by direction and shape or compound fluorescence and quenching.
compound,measurement,setting,value
CCC1(c2ccc(N)cc2)CCC(=O)NC1=O (stereo not given),Potency,[1],inactive
same,Potency,[2],"inconclusive: 1.69 µM [rising, partial curve]"
CCN(CC)c1nc(C)cc(OP(=S)(OC)OC)n1,Potency,[1],inactive
same,Potency,[3],inactive
same,Potency,[4],"inconclusive: 19.3 µM [rising, partial curve, poor fit]"
same,Potency,[5],"inconclusive: 0.686 µM [rising, partial curve]"
Oc1cccc(Cl)c1Cl,Potency,[1],inactive
same,Potency,[6],"inconclusive: 68.9 µM [rising, partial curve, poor fit]"
same,Potency,[4],"inconclusive: 77.3 µM [cytotoxic, single point]"
same,Potency,[7],"inconclusive: 61.4 µM [cytotoxic, single point]"
same,activation,[8],inconclusive: 8.03%
same,Potency,[5],"inconclusive: 5.47 µM [rising, full curve, poor fit]"
same,Potency,[9],"inconclusive: 68.9 µM [cytotoxic, single point]"
same,Potency,[10],active: 27.4 µM
CCCCCc1cc(O)cc(O)c1,Potency,[1],active: 30.6 µM
same,Potency,[11],"inconclusive: 48.6 µM [cytotoxic, partial curve]"
same,Potency,[4],"inactive and inconclusive: 34.4 µM [cytotoxic, partial curve]"
same,Potency,[12],"inconclusive: 61.1 µM [cytotoxic, partial curve]"
same,Potency,[8],"inconclusive: 38.6 µM [cytotoxic, partial curve]"
same,Potency,[5],active: 68.9 µM and active: 21.7 µM
same,Potency,[9],"inconclusive: 54.7 µM [rising, partial curve] and inconclusive: 19.3 µM [rising, partial curve]"
O=C(CCl)C(Cl)Cl,Potency,[1],active: 17.4 µM
same,activation,[6],inconclusive: -6.81%
same,Potency,[3],inconclusive: 30.9 µM [partial curve]
same,Potency,[11],active: 27.6 µM
same,Potency,[4],active: 9.78 µM
same,Potency,[7],"inconclusive: 24.6 µM [cytotoxic, partial curve]"
same,Potency,[12],"inconclusive: 27.6 µM [cytotoxic, partial curve]"
same,Potency,[8],"inconclusive: 21.9 µM [activator, partial curve]"
same,Potency,[5],inconclusive: 43.7 µM [partial curve]
same,Potency,[9],active: 43.7 µM
same,Potency,[10],active: 27.6 µM
same,Potency,[2],inactive
CCN(CC)C1CCCCC1,Potency,[1],"inconclusive: 21.7 µM [rising, partial curve]"
same,Potency,[12],inactive
same,Potency,[5],inactive
same,Potency,[10],"inconclusive: 27.3 µM [rising, single point]"
OCC(O)CO,Potency,[1],"inconclusive: 27.6 µM [rising, single point]"
same,activation,[8],inconclusive: -0.531%
O=C1NCN(c2ccccc2)C12CCN(CCCOc1ccc(F)cc1)CC2,Potency,[1],"inconclusive: 10.6 µM [cytotoxic, full curve]"
same,Potency,[13],"inconclusive: 7.5 µM [inhibitor, full curve]"
same,Potency,[4],"inconclusive: 23.7 µM [cytotoxic, partial curve]"
same,Potency,[12],"inconclusive: 23.7 µM [cytotoxic, partial curve]"
same,"activity change, negative = inhibition",[5],inconclusive: -27.8% [at 42.5 µM]
C=CC(=O)OCC(C)O (stereo not given),Potency,[1],"inconclusive: 35.5 µM [cytotoxic, partial curve, poor fit]"
same,"activity, negative = inhibition",[3],inconclusive: -15.7%
same,Potency,[14],inactive
CCOC(=O)OC1=C(c2cc(C)ccc2C)C(=O)NC12CCC(OC)CC2 (stereo not given),Potency,[1],inactive
same,Potency,[4],"inconclusive: 68.5 µM [cytotoxic, single point]"
same,activation,[8],inconclusive: 13.5%
same,Potency,[10],inactive
O=C(O)C(Cl)(Cl)Cl,Potency,[1],"inconclusive: 59.6 µM [rising, partial curve]"
same,Potency,[13],"inconclusive: 68.6 µM [inhibitor, single point]"
same,Potency,[7],inactive
CCOP(=S)(OCC)OP(=S)(OCC)OCC,Potency,[1],inactive
same,Potency,[6],inactive
same,Potency,[9],inactive
N#CNC#N,Potency,[1],inactive
same,Potency,[4],inactive
same,"activity change, negative = inhibition",[5],inconclusive: 8.79%
N#C/C=C/C#N,Potency,[1],"inconclusive: 32.1 µM [cytotoxic, partial curve, poor fit]"
same,Potency,[6],"inconclusive: 36 µM [activator, partial curve]"
same,"activity, negative = inhibition",[3],inconclusive: -38.1%
same,Potency,[7],"inconclusive: 50.8 µM [cytotoxic, partial curve]"
same,Potency,[15],"inconclusive: 64 µM [activator, partial curve]"
same,Potency,[5],active: 45.3 µM
same,Potency,[9],inactive
CCCCCCCCCCCCCl,Potency,[1],inactive
same,Potency,[7],inactive
same,Potency,[10],"inconclusive: 68.6 µM [cytotoxic, single point]"
